Assay results taken from PubChem BioAssay AID504332 (National Center for Advancing Translational Sciences (NCATS), 2011).
Among all 350,000 compounds or so, about 31,000 (8.9%) were called active. This list was built around the results that the source calls inconclusive (neither active nor inactive); the mix of calls is not that of the screen. Calls come from the whole dose curve; as a rule, active = well fitted inhibition curve with a large enough effect; inconclusive = small, poorly fitted or top-dose-only effect; inactive = no such curve, though single readings can be large or run the other way. Where the call is inconclusive, the potency comes from a doubtful curve fit.

biological target: Histone-lysine N-methyltransferase EHMT2 (Homo sapiens) (UniProt Q96KQ7); test: qHTS Assay for Inhibitors of Histone Lysine Methyltransferase G9a; details: G9a H3K9 monomethylation, AlphaScreen, 2 h; activity, negative = inhibition: at 59 µM (top of the series) unless noted; note: nearly all actives have a fitted effect of over 75% in size
Sequence of UniProt Q96KQ7 (Q96KQ7 whole entry, looked up): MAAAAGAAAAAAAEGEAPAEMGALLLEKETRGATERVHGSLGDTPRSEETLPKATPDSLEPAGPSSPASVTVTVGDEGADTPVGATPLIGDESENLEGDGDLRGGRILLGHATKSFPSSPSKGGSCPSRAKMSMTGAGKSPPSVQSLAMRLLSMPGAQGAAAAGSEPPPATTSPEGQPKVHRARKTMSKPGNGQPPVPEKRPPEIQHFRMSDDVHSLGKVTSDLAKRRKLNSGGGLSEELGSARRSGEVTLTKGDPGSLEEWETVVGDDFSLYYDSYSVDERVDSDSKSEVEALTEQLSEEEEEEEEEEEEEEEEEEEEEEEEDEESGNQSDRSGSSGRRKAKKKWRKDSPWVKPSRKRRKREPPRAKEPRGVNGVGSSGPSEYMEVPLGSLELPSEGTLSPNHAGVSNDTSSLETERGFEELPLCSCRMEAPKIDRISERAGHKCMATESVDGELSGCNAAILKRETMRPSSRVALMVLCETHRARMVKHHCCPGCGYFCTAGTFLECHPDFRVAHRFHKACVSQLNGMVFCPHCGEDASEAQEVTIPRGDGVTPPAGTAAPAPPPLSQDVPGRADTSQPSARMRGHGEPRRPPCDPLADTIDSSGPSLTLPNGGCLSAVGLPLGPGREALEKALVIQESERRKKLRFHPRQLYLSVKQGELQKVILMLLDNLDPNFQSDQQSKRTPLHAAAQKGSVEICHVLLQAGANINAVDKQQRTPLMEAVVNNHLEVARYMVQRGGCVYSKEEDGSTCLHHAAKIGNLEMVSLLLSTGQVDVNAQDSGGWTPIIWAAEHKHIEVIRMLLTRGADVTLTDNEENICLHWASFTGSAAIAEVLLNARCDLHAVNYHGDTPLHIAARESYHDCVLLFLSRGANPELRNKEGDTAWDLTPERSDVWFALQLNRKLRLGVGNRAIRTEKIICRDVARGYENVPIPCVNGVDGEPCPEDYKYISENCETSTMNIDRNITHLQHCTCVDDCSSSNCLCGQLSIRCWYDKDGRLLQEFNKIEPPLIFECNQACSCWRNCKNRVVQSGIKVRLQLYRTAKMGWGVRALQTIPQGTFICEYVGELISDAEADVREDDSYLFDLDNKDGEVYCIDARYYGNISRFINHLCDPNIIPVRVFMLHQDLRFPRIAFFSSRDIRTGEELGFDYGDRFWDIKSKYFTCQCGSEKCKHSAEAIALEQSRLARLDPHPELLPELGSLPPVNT
In short: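 G9a (20 nM) preincubated 15 min RT with compounds, then 500 nM biotinylated H3K9 peptide and 20 uM SAM added; 2 h RT reaction. Monomethyl-H3K9 product detected by AlphaScreen with anti-H3K9me1 antibody, streptavidin donor and anti-rabbit IgG acceptor beads.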
% is set by controls: 0 for no effect and ±100 for the full control effect; potency is the fitted concentration of half-maximal effect; tags give direction and shape of the fitted curve.

| SMILES | Potency | activity, negative = inhibition |
| --- | --- | --- |
| Fc1ccc(F)c(Nc2c3c(nc4ccc(Cl)cc24)CCC3)c1 | inconclusive: 39.8 µM [inhibitor, partial curve, poor fit] | – |
| O=C(NC(=S)Nc1ccc(N2CCCCC2)cc1)c1ccc2c(c1)OCCO2 | inconclusive: 10 µM [inhibitor, partial curve, poor fit] | – |
| Cc1ccc(NC(=O)Cc2ccc3c(c2)CCCC3)cc1C | – | inconclusive: -64% [inhibitor] [at 12.7 µM] |
| Cc1ccnc(SCC(=O)N2CCN(c3cccc(Cl)c3)CC2)n1 | – | inconclusive: -65% [inhibitor] |
| CC1(C)CC(=O)c2sc(NC(=O)c3cccs3)nc2C1 | inactive | – |
| COC(=O)c1cc(C(=O)OC)cc(N2C(=O)CC(N3CCN(c4ccccc4)CC3)C2=O)c1 (stereo unspecified) | active: 15.8 µM | – |
| O=C(COc1ncnc2ccccc12)N1CCN(c2ccccc2)CC1 | active: 50.1 µM | – |
| Cc1ccc(C(=O)/C=C/c2ccc3ncccc3c2)cc1 | inconclusive: 56.2 µM [inhibitor, partial curve, poor fit] | – |
| CCOC(=O)c1c(NC(=O)c2cc(=O)c3cc(Cl)ccc3o2)sc(C)c1C | inactive | – |
| O=C(c1ccco1)N1CCN(S(=O)(=O)c2ccc(Br)s2)CC1 | active: 12.6 µM | – |
| COc1ccc(N2C(=O)C(CC(=O)Nc3ccc(Cl)cc3)N(Cc3ccc4c(c3)OCO4)C2=O)cc1 (stereo unspecified) | inconclusive: 11.2 µM [inhibitor, partial curve, poor fit] | – |
| O=S(=O)(Nc1ccc(S(=O)(=O)Nc2ncccn2)cc1)c1ccc(Cl)cc1 | inconclusive: 89.1 µM [inhibitor, single point] | – |
| S=C(NCc1ccc2c(c1)OCO2)Nc1ccc(-c2nc3ccccc3[nH]2)cc1 | inconclusive: 39.8 µM [inhibitor, single point] | – |
| Cc1ccc2nc(-c3ccccn3)cc(C(=O)NC(C)C(C)(C)C)c2c1 (stereo unspecified) | – | inconclusive: -90.1% [inhibitor] |
| COc1ccc(NC(=O)CCc2nc3cccnc3n2-c2ccccc2)c(OC)c1 | inconclusive: 25.1 µM [inhibitor, partial curve, poor fit] | – |
| COc1ccc(-c2cc(C(F)(F)F)nc(S(C)(=O)=O)n2)cc1OC | inconclusive: 11.2 µM [inhibitor, partial curve, poor fit] | – |
| C/C(=N/N1CCN(c2ccccc2)CC1)c1cccc([N+](=O)[O-])c1 | active: 25.1 µM | – |
| O=C(NNC(=O)c1sccc1-n1cccc1)Nc1ccccc1 | inconclusive: 39.8 µM [inhibitor, partial curve, poor fit] | – |
| NNC(=O)c1nc(Cl)c(Cl)c(N)c1Cl | inconclusive: 79.4 µM [inhibitor, partial curve, poor fit] | – |
| CCCCn1c(CN2CCN(C(=O)OCC)CC2)nc2c1c(=O)n(C)c(=O)n2C | inconclusive: 31.6 µM [inhibitor, single point] | – |
| CC(O)(C#CCN1CCCCC1)c1ccccc1 (stereo unspecified) | inconclusive: 39.8 µM [inhibitor, single point] | – |
| Cc1ccc(OCC(=O)N2CCN(S(=O)(=O)c3ccc(Cl)cc3)CC2)c([N+](=O)[O-])n1 | active: 39.8 µM | – |
| CSC1CCCCC1(O)CSc1nc2c(cc1C#N)CCCC2 (stereo unspecified) | active: 2.51 µM | – |

| SMILES | Potency | activity, negative = inhibition |
| --- | --- | --- |
| Cc1ccccc1/[N+]([O-])=C/c1ccncc1 | inconclusive: 7.94 µM [inhibitor, partial curve, poor fit] | – |
| O=C(NCC1CCCCC1)C12CN(Cc3ccccc3)CC1C(c1cccc([N+](=O)[O-])c1)=NO2 (stereo unspecified) | – | inconclusive: -62.7% [inhibitor] |
| O=S(=O)(Nc1ccccn1)c1cccs1 | inconclusive: 50.1 µM [inhibitor, partial curve] | – |
| Cc1sc(NC(=O)CSC2=NCCS2)nc1-c1ccccc1 | inconclusive: 89.1 µM [inhibitor, single point] | – |
| CCN1CCN(C(c2ccc(C)cc2)c2sc3nc(-c4ccco4)nn3c2O)CC1 (stereo unspecified) | inactive | – |
| CNNC(=S)NCCC1=CCCCC1 | inconclusive: 89.1 µM [inhibitor, single point] | – |
| COc1cccc(CCNC(=O)C2CCC(=O)N(C3CC3)C2)c1OC (stereo unspecified) | – | inactive: 1.97% [at 12.7 µM] |
| Cc1c(O)ccc(-c2n[nH]c(C(=O)O)c2-c2nc3ccccc3s2)c1O | active: 44.7 µM | – |
| COCCCNC(=O)c1sc2nc(C)c(C(=O)Nc3ccc(Cl)cc3)c(-c3ccc(Br)cc3)c2c1N | inactive | – |
| O=C1C2C3C=CC(O3)C2C(=O)N1CC(O)c1ccccc1 (stereo unspecified) | – | inconclusive: -87.1% [inhibitor] |
| CNC(=O)CC(C(=O)O)c1ccc(OC(C)C)cc1 (stereo unspecified) | inconclusive: 89.1 µM [inhibitor, partial curve, poor fit] | – |
| CC1CN(Cc2ccccc2Cl)CC(C)O1 (stereo unspecified) | active: 8.91 µM | – |
| COc1ccc(CN2CCNC(=O)C2CC(=O)NCCc2nc(C)c(C)s2)c(OC)c1 (stereo unspecified) | inconclusive: 39.8 µM [inhibitor, partial curve, poor fit] | – |
| C=CCn1c(SCc2nc(N)nc(N3CCCCC3)n2)nnc1-c1ccco1 | inconclusive: 50.1 µM [inhibitor, partial curve, poor fit] | – |
| CCc1nnc(NC(=O)c2ccc3ncsc3c2)s1 | inconclusive: 39.8 µM [inhibitor, partial curve, poor fit] | – |
| CCn1c(CSCc2ccccc2)n[nH]c1=S | active: 7.08 µM | – |
| CCC(C)Sc1nc2c(c(=O)[nH]c(=O)n2C)n1CC(O)COc1cccc2ccccc12 (stereo unspecified) | active: 7.94 µM | – |
| COc1cccc(NC(=O)CSc2cc(C)[nH]c(=O)n2)c1 | inactive | – |
| CCc1cc(=O)n2c([nH]c3ccccc32)c1C#N | – | inactive: 31.6% [at 12.7 µM] |
| COc1cc(N=c2oc3c(C)ncc(CO)c3cc2C(N)=O)cc(OC)c1OC | inactive | – |
| NC(CC(=O)OC1CCCCC1)C(=O)OC1CCCCC1 (stereo unspecified) | inconclusive: 89.1 µM [inhibitor, partial curve, poor fit] | – |
| CC1CN(C(=O)N[C@@H](Cc2ccccc2)C(=O)O)CC(C)O1 (stereo partly specified) | active: 56.2 µM | – |
| CC(=O)c1ccc(OCCCC(=O)Nc2ccc(C)c(S(=O)(=O)N3CCCCC3)c2)cc1 | inconclusive: 39.8 µM [inhibitor, partial curve, poor fit] | – |
